Assay results reported in PubChem BioAssay AID624417 (National Center for Advancing Translational Sciences (NCATS), 2012).
The campaign covered roughly 410,000 compounds. About 6,400 (1.6%) were called active. This list was built around the results that the source calls inconclusive (neither active nor inactive); the mix of calls is not that of the screen. The call rests on the fitted dose curve; in most records, active means well fitted inhibition curve with a large enough effect; inconclusive means small, poorly fitted or top-dose-only effect; inactive means no such curve, though single readings can be large or run the other way. Potencies of inconclusive entries are doubtful fits and often do not repeat.

Each compound was assayed against Glucagon-like peptide 1 receptor (Homo sapiens) (UniProt P43220) (assay: qHTS of GLP-1 Receptor Inverse Agonists (Inhibition Mode)). Conditions: HEK293 GLP-1R CRE-luciferase, luminescence, 24 h, GLP-1R form is constitutively active; series mostly up to 38.3 µM.
Summary of the method: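 HEK293 cells stably co-expressing constitutively active GLP-1R and a cAMP-responsive luciferase reporter were seeded in DMEM with 10% Nu serum, given compounds after 12 h, and incubated 24 h at 37 deg C. Luminescence was then read.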
Further: nearly all actives have a fitted effect of over 55% in size.
Potency means the concentration at half of the fitted maximal effect; tags describe the fitted curve by direction and shape.

Chain of UniProt P43220 (P43220 whole entry, looked up): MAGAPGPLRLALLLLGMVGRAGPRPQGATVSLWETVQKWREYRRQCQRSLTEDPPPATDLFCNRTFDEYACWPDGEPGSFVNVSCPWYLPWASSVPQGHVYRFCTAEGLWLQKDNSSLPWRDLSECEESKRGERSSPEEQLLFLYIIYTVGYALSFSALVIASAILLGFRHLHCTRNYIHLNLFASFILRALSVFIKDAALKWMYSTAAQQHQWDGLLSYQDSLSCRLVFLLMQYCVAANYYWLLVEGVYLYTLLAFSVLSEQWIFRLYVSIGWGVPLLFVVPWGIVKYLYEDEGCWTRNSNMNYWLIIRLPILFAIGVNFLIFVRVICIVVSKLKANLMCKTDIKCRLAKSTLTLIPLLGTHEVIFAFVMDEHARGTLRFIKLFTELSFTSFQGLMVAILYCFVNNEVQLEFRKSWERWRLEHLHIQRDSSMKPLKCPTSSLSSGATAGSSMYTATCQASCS

Potency, active:
O=C(Nc1c(-c2ccccc2)nc2ccccn12)c1cccc(F)c1 10 µM
CN(Cc1ccccc1)CC(O)COc1ccc(CNCc2ccc(Cl)s2)cc1 (stereo unspecified) 4.47 µM

Potency, inactive:
NC(=O)C1(N2CCCCC2)CCN(C(=O)Nc2ccc(F)cc2)CC1
CCCNC(=O)c1ccc2c(c1)sc1nc(-c3ccc(C)cc3)cn12
CCN(CC)CCOC(=O)c1c(C)oc2ccc(O)cc12
C/C(=C\C(=O)c1ccccc1)Nc1ccc(Br)c(Cl)c1
CC1(C)Cc2c(sc(NC(=O)c3ccccc3)c2C(=O)O)CO1
O=C(NCC(c1ccc(F)cc1)N1CCOCC1)c1c(F)cccc1F (stereo unspecified)
c1nnnn1C12CC3CC(CC(C3)C1)C2

Potency, inconclusive:
CCOc1ccc(N2C(=O)C3C4C=CC(CC4)C3C2=O)c([N+](=O)[O-])c1 (stereo unspecified) 11.2 µM [inhibitor, single point]
Cc1cc(C)cc(NC(=S)NCCc2c[nH]c3ccccc23)c1 15.8 µM [inhibitor, partial curve, poor fit]
CCSc1nc2c(c(-c3ccc(C)o3)c1C#N)CCCC2 28.2 µM [inhibitor, single point]
O=C(Cn1ccc(=O)[nH]c1=O)c1ccc([N+](=O)[O-])o1 28.2 µM [inhibitor, single point]
C[C@@]12CCC=C[C@H]1[C@H](c1ccc(F)c(/C=C/c3ccccc3)c1)N(Cc1ccccc1)C2=O 8.91 µM [inhibitor, partial curve, poor fit]
O=C(Nc1ccc(Br)cc1)C1CCN(C(=O)c2ccc(F)cc2)CC1 14.1 µM [inhibitor, partial curve, poor fit]
O=C(CN1CCN(Cc2ccccc2)CC1)N/N=C/C=C/c1ccccc1[N+](=O)[O-] 0.794 µM [inhibitor, full curve, poor fit]
O=C(c1cccc(OC2CCN(Cc3ccc(F)cc3)CC2)c1)N1CCCC1 7.94 µM [inhibitor, partial curve, poor fit]
CC(C)CC1C(=O)N(Cc2cn(CCC3OCCO3)nn2)CCS(=O)(=O)N1Cc1ccc(-c2ccccc2)cc1 (stereo unspecified) 28.2 µM [inhibitor, single point]
COc1ccc(CCNC(=S)N2CCN(S(=O)(=O)c3ccccc3)CC2)cc1 28.2 µM [inhibitor, single point]
N#Cc1cc2c(nc1SCc1ccc(Cl)nc1)CCCCC2 28.2 µM [inhibitor, single point]
Cc1nc(CSc2ccc(Cl)cc2)cc(N2CC(C)OC(C)C2)n1 (stereo unspecified) 10 µM [inhibitor, single point]
CCOc1ccc(C(=O)Nc2cccc(C)n2)cc1 10 µM [inhibitor, single point]
Cc1cccc2sc(NNC(=O)c3ccc(S(=O)(=O)N4CCCC(C)C4)cc3)nc12 (stereo unspecified) 28.2 µM [inhibitor, single point]
Cc1ccc(-c2nn(-c3cccc(F)c3)cc2CN(Cc2nccn2C)C(C)C)o1 28.2 µM [inhibitor, single point]
Cc1cc(-c2ccc(C)c(S(=O)(=O)NCC3CCN(Cc4ccc(F)cc4)CC3)c2)on1 8.91 µM [inhibitor, partial curve, poor fit]
COc1ccc(C(=O)NCC(C)(c2ccccc2)c2ccccc2)cc1S(=O)(=O)N1CCOCC1 6.31 µM [inhibitor, partial curve, poor fit]
Fc1cccc(Cl)c1Cn1c(-c2cccs2)nc2ccccc21 11.2 µM [inhibitor, partial curve, poor fit]
CCOC(=O)C1CCCN(S(=O)(=O)c2ccc(OC)c3ccccc23)C1 (stereo unspecified) 4.47 µM [inhibitor, full curve, poor fit]
Cc1[nH]c2ccccc2c1SCC(=O)N1CCC(C)CC1 11.2 µM [inhibitor, partial curve, poor fit]
Cc1cccc(-n2ncc3c(N4CCC(C)CC4)ncnc32)c1 22.4 µM [inhibitor, single point]
OCCC1CN(C2CCN(c3ccccc3)CC2)CCN1Cc1ccc(F)c(F)c1 (stereo unspecified) 14.1 µM [inhibitor, single point]
CC1(C)N=C(N)N=C(N)N1CCCCc1ccccc1 2 µM [inhibitor, full curve, poor fit]
CCN(CC)CCCNC(=O)c1cc2c(=O)[nH]c3ccc(C)cc3c2s1 12.6 µM [inhibitor, single point]
COc1ccc(C(=O)Nc2nc3c(s2)CCCC3)cc1Cl 28.2 µM [inhibitor, single point]
O=C(CNCCc1ccccc1)N1CCc2ccccc2C1 11.2 µM [inhibitor, single point]
CCOc1cccc(NC(=O)CSc2ncc(-c3ccccc3)[nH]2)c1 20 µM [inhibitor, single point]
Cc1cccc(N2CCN(C(=O)c3ccc4c(c3)N(Cc3cccc(Cl)c3)C(=O)c3ccccc3S4=O)CC2C)c1 (stereo unspecified) 11.2 µM [inhibitor, single point]
COC(=O)[C@@]12C[C@@H](CC(=O)NCc3ccc(C)o3)C(=O)N(Cc3ccco3)C1=CCC(C)(C)C2 20 µM [inhibitor, single point]
CC(=O)C1=C(C)NC(SCC(=O)Nc2nccs2)=C(C#N)C1c1ccccc1Cl (stereo unspecified) 4.47 µM [inhibitor, partial curve]
Cc1ccc(NC(=O)CN(C)C(=O)c2ccccc2Sc2ccccc2C#N)cc1 11.2 µM [inhibitor, single point]
O=C(CNc1cccc(C(F)(F)F)c1)N/N=C/c1cn(-c2ccccc2)nc1-c1ccccc1 3.16 µM [inhibitor, full curve]
